Test results: PMC6919601, “Identification of Plasmodium dipeptidyl aminopeptidase allosteric inhibitors by high throughput screening” (PLoS ONE, 2019)
The whole screen tested about 110,000 compounds, of which about 230 (0.21%) showed an effect of 50% or more. Some of the results follow.

biological target: DPAP1 (Plasmodium falciparum, UniProt Q8IIJ9); assay: primary screen, percent inhibition; read by cleavage of a fluorogenic dipeptide substrate; higher = more effect of the substance; set-up: species or system P. falciparum D10 trophozoite lysates; single well
Sequence (Q8IIJ9 whole entry, looked up): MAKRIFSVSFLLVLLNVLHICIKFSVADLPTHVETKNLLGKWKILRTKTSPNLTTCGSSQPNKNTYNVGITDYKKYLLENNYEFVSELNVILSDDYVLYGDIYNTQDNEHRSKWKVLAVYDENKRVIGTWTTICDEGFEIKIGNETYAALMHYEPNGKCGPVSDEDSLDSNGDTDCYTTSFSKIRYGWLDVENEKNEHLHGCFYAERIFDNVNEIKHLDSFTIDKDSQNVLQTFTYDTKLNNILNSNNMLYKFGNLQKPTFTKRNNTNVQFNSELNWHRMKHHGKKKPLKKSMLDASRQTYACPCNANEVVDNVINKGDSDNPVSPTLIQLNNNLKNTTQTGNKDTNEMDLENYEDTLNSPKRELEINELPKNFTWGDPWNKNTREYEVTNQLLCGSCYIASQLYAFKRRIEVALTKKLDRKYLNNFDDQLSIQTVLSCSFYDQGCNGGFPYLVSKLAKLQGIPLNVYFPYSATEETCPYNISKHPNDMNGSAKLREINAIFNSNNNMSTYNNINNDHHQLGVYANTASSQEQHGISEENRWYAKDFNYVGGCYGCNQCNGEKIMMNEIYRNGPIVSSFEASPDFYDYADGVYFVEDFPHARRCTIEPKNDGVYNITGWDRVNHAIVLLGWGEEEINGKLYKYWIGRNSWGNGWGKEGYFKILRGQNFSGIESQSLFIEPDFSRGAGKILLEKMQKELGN
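Further: 30 min substrate incubation versus DMSO and 10 µM JCP410 controls.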

Point of comparison: C=CCOc1ccc(C=C2C(=O)OC(C)(C(C)(C)C)OC2=O)cc1 (stereo not drawn), “% Inhibition @ 10 uM” value 0.146%. Against it:
- Cc1ccccc1CNC(=O)CCN1C(=O)c2ccccc2Sc2ncccc21 — lower, -0.677%
- COC(=O)C1=C(C)N=c2s/c(=C/C=C/c3ccccc3)c(=O)n2C1c1ccccc1 (stereo not drawn) — lower, -4.75%
- COc1ccc2nc(NC(=O)c3cc(S(=O)(=O)N4CCOCC4)cn3C)sc2c1 — lower, -3.42%
- O=C(COc1ccc(Br)cc1)Nc1ccc(S(=O)(=O)Nc2ccc(F)cc2)cc1 — higher, 4.11%
- Cc1ccc2cc3cc(C(=O)N4CCN(Cc5ccccc5)CC4)sc3nc2c1 — higher, 3.07%
- Cc1c(/C=C2/C(=O)NC(=O)N(Cc3ccco3)C2=O)c2ccccc2n1Cc1ccc(F)cc1 — higher, 3.27%
- O=C(NCc1ccccc1Cl)C1CCCN1S(=O)(=O)c1cccc2nsnc12 (stereo not drawn) — lower, -0.465%
- CCn1c(C(=O)N2CCC(C(=O)NCCC(C)C)CC2)cc2sccc21 — higher, 92.1%
- CCN1C(=O)c2cccc3c(NS(=O)(=O)c4ccc(C)cc4)ccc1c23 — lower, -8.12%
- Cc1nc2c(c(C)nn2-c2ccccc2)c(C)c1CCC(=O)N1CCN(c2ccccn2)CC1 — lower, -2.45%
- CCOC(=O)C1=C(C)N(C)C(C)=C(C(=O)OCC)C1c1cccs1 — lower, -5.03%
- COC(=O)c1cc(S(=O)(=O)NCc2ccc3c(c2)OCO3)c[nH]1 — higher, 5.64%
- CC1CC2(C)CC(C(=O)O2)C1C(=O)O (stereo not drawn) — lower, -1.76%
- CCCCN1C(=O)C2Cc3c([nH]c4ccccc34)C(c3cccc(OC)c3OC)N2C1=O (stereo not drawn) — lower, -1.8%
- CSc1ncc(C(=O)NCCc2ccc(Cl)cc2)c(-c2ccccc2)n1 — lower, -2.48%
- COc1ccc(OCc2nn3c(-c4ccncc4)nnc3s2)cc1 — higher, 13%
- CCc1nc2c(sc3nc(N4CCOCC4)c4c(c32)CC(C)(C)OC4)c(=O)o1 — lower, -4.74%
- COC(=O)C1=C(C)N=C(C)/C(=C(/O)OC)C1c1ccncc1 (stereo not drawn) — lower, -2.6%
- COc1cccc(-c2cc(C(=O)N[C@@H](CC(C)C)C(=O)NCC#N)cc(-c3cccc(OC)c3)c2)c1 — higher, 0.174%
- O=C1c2ccccc2C(O)(Cc2ccccc2)N1Cc1ccc2c(c1)OCO2 (stereo not drawn) — higher, 1.62%
- CCOC(=O)N1CCN(C(=O)c2cc3c(s2)-c2ccccc2SC3)CC1 — higher, 1.15%
- COc1cccc(NC(=O)c2ccc3c(c2)C(=O)N(C(C)(C)C)C3=O)c1 — lower, -6.39%
- Cc1nn2c(C(F)(F)F)cc(-c3ccc(Cl)cc3)nc2c1C(=O)NCCCn1ccnc1 — lower, -0.67%
- CC(C)C(=O)Nc1sc2c(c1C#N)CCCCC2 — higher, 5.59%
- Cc1c(-c2ccccc2)nn2c(O)c3c(nc12)CCC3 — lower, -0.274%
- Cc1ccc(C(=O)N/C(=C\c2ccco2)C(=O)N2CCC(C(N)=O)CC2)cc1C — higher, 0.777%
- COc1ccc(-c2nc3n(n2)C(c2ccccc2F)C(C(N)=O)=C(C)N3)cc1OC (stereo not drawn) — higher, 0.275%
- CCOc1ccc(-c2cnc(S)nc2N)cc1 — lower, -1.2%
- Cc1cc(F)c(F)cc1C(=O)Cn1cncn1 — lower, -3.74%
- COc1ccc(N2CCN(C(=O)C3CCCCC3)CC2)cc1 — lower, -6.64%
- Clc1nc(-c2cccnc2)nc2ccccc12 — lower, -2.35%
- O=C(O)c1ccc(Oc2ccc(Oc3ccc(C(=O)O)cc3)cc2)cc1 — lower, -4.02%
- Cc1cc(O)nc2cc(-c3ccccc3)nn12 — lower, -4.39%
- C=Cc1ccc(Cn2c(C(=O)O)c(CNCCc3ccc(OC)c(OC)c3)c3ccccc32)cc1 — higher, 0.277%
- Cc1cc(C)c(C#N)c(S)n1 — higher, 89.9%
- O=C(NCCc1ccncc1)N1CCOCC1 — lower, -1.85%
- c1ccc2oc(-c3nn4c(-c5ccncc5)nnc4s3)cc2c1 — higher, 8.94%
- O=C(COc1ccccc1)N(Cc1ccccc1)c1cccc([N+](=O)[O-])c1 — lower, 0.035%
- CCn1c2ccccc2c2cc(CN3CCC(C)CC3)ccc21 — lower, -0.0494%
- Cc1cc(C)n(C2CC(=O)N(c3ccccc3)C2=O)n1 (stereo not drawn) — higher, 5.25%
- CC(=O)c1cccc(N2CC(C(=O)O)CC2=O)c1 (stereo not drawn) — higher, 0.161%
- C=CCN(Cc1nc(-c2cccc(C)c2)no1)C(=O)NCCC — higher, 1.67%
- N#Cc1c(SCC(=O)Nc2nccs2)nsc1SCC(=O)Nc1nccs1 — higher, 3.25%
- Cc1ccc(CNC(=O)CNC(=S)N(Cc2ccccc2)Cc2cccnc2)cc1 — lower, -0.406%
- COc1ccc(OCCn2cc(C=C3C(=O)NC(=O)NC3=O)c3ccccc32)cc1 — higher, 13.3%
- Cc1cc(C=C2C(=O)NC(=O)NC2=O)c(C)n1-c1ccc(N(C)C)cc1 — lower, -4.8%
- O=C(Nc1cccc(-c2nc3cc(Cl)ccc3o2)c1)c1ccc(Cl)cc1 — higher, 4.16%
- O=C(CSC1CC(=O)N(c2ccc(C(=O)O)cc2)C1=O)Nc1ccc2ccccc2c1 (stereo not drawn) — lower, -5.79%
- COc1ccc(Nc2nc(-c3ccncc3)cs2)cc1 — lower, -4.98%
- Cc1onc(-c2c(Cl)cccc2Cl)c1C(=O)N1CCCCCC1 — higher, 0.177%
- CC(=O)CCS(=O)(=O)c1c(C)c(C)cc(C)c1C — higher, 2.33%
- O=C(CCC1CCCCC1)N1CCN(c2ccccc2F)CC1 — lower, -3.24%
- CC(C)CCNC(=O)C1CCN(c2cnccn2)CC1 — lower, -2.71%
- CCOC(=O)c1csc(CCN)n1 — lower, -3.8%
- CCCO/C(O)=C1\C(C)=NC2=C(C(=O)CC(C)(C)C2)C1c1cccc(Cl)c1Cl (stereo not drawn) — lower, -5.44%
- CC(C)C[C@H](NC(=O)c1cc(Br)c(Br)s1)C(=O)NCC#N — lower, -4.72%
- CSC1=C(C#N)C(c2ccc3c(c2)OCO3)C2=C(O)CCCC2=N1 (stereo not drawn) — lower, -1.26%
- O=C(O)CNC(=O)/C(=C/c1ccc2c(c1)OCO2)NC(=O)c1ccco1 — lower, -4.41%
- O=C(NC1CCSC1=O)c1cccs1 (stereo not drawn) — higher, 3.27%
- COc1ccc(S(=O)(=O)N2CCC(NC(=O)N3CCCC3)CC2)cc1 — higher, 3.69%
- c1ccc(CSc2ncnc3c2oc2ccccc23)cc1 — lower, -3.21%
- C[C@@H](C[C@H](NC(=O)c1ccc(-c2cc(C(=O)O)ccc2Cl)cc1)C(=O)NCC#N)c1ccccc1 — higher, 15.8%
- CN(C)C(=O)COC(c1ccccc1)(c1ccccc1)c1ccccc1 — lower, -8.88%
- COc1cc(C(=O)n2nc(N)c3cc4ccc(C)cc4nc32)cc(OC)c1OC — higher, 3.2%
- Cn1ncc2c1ncn1nc(-c3ccccc3Cl)nc21 — lower, -4.19%
- O=C(Nc1ccc(S(=O)(=O)N2CCCCC2)cc1)C(F)(F)F — lower, -7.34%
- COCCNC(=O)c1cnn2c(C(F)(F)F)cc(-c3ccc4c(c3)OCO4)nc12 — lower, -2.29%
- CSc1ccc(/C=C2\CC/C(=C\C(C)C)C2=O)cc1 — higher, 1.83%
- COC(=O)c1noc(-c2ccc(C)cc2)n1 — lower, -3.53%
- CCOC(=O)c1ccc(-c2ccc(C=C3C(=O)OC(C)(C(C)(C)C)OC3=O)o2)cc1 (stereo not drawn) — higher, 25.7%
- CCNC(=O)/C=C1\NC(C)(C)Cc2c1ccc1ccccc21 — higher, 2.17%
- Oc1ccccc1Cn1c(-c2ccccc2O)nc2ccccc21 — higher, 1.64%
- COC(=O)C1=C(C)OC(N)=C(C#N)C1c1cccc(C(F)(F)F)c1 (stereo not drawn) — higher, 25.7%
- COCCNC(=O)Cn1ncc2c3ccccc3n(C)c2c1=O — lower, -9.31%
- COc1ccc(-c2cc(N)n(S(=O)(=O)c3c(F)c(F)c(F)c(F)c3F)n2)cc1OC — higher, 8.53%
- Cc1cc(NC(=O)C(=O)c2cn(C)c3ccccc23)no1 — lower, -0.403%
- Cc1[nH]c2ccccc2c1C(c1cccs1)N1CCCC1 (stereo not drawn) — higher, 6.73%
- CCS(=O)(=O)C1=NSC2=NC(=O)/C(=C\c3cc(C)n(-c4ccc(C)cc4)c3C)C(=N)N21 — lower, -3.39%
- Cc1ccc(C)c(C(C)NC(=O)c2cnccn2)c1 (stereo not drawn) — higher, 4.44%
- O=c1oc(-c2ccccc2)nc2sc3c(c12)CCC3 — higher, 1.63%
- Cc1ccc(Nc2nc(-c3ccc(Br)cc3)cs2)cc1 — lower, -2%
- COc1ccc(NC(=O)C23CC4CC(C2)CC(n2cnc(Br)n2)(C4)C3)c(C)c1 — lower, -2.37%
- CN1C2CCC1/C(=C\c1ccco1)C(=O)/C2=C\c1ccco1 — higher, 5.5%
- CCCC[C@H](NC(=O)[C@@H](NC(=O)c1ccc(CNC(=O)OC(C)(C)C)cc1)[C@H](C)CC)C(=O)CO — higher, 3.48%
- O=C(Nc1nc2ccccc2s1)C1c2ccccc2C(=O)N2CCc3ccccc3C12 (stereo not drawn) — lower, -0.591%
- COc1ccccc1N(CC(=O)NC1CCCC1)S(C)(=O)=O — higher, 4.08%
- CCN1CCN(CC#Cc2cccc([C@@H](CC(C)C)C(=O)NCC#N)c2)CC1 — lower, -4.72%
- N#CC1=C(N)Oc2cc(N)ccc2C1c1ccc(Cl)cc1Cl (stereo not drawn) — higher, 7.65%
- O=C(C1CCCN1S(=O)(=O)c1cccc2nsnc12)N1CCN(c2ccccn2)CC1 (stereo not drawn) — lower, -8.02%
- CNC(=O)Cn1c(=O)c2cccn2c2cccnc21 — lower, -7.87%
- Cc1cc(-c2ccccc2C(=O)O)on1 — lower, -5.2%
- Cc1ccc(S(=O)(=O)N2CC=C(C(=O)NCC3CCCO3)CC2)cc1 (stereo not drawn) — lower, -0.406%
- CC(C)CCn1c(=O)c2ccccc2n2c(CCC(=O)NCCC3=CCCCC3)nnc12 — higher, 17.1%
- Cc1cc(-c2noc(-c3cccc(Br)c3)n2)c2ccccc2n1 — higher, 2.99%
- Cc1ccc2nc(NC(=O)CSc3nc(C)cc(C)n3)sc2c1 — higher, 0.823%
- CC(C)C[C@H](NC(=O)c1cc(-c2cccnc2)c(Cl)s1)C(=O)NCC#N — lower, -3.48%
- C#CCOc1ccc(C2C3=C(CCCC3=O)OC3=C2C(=O)CCC3)cc1Cl — higher, 1.83%
- COc1ccc(NC(=O)Cc2ccc(F)cc2F)cc1 — lower, -2.18%
